Laboratory results reported in publication PMC5074515 (PLoS ONE, 2016).

Test: Acute toxicity mouse model
Type: in vivo
Conditions: mice; tested at 100, 300 and 500 mg/kg

## CC[n+]1c(/C=C/N(C)c2ccccc2)n(-c2ccccc2)c2ccc(-c3nc4ccccc4s3)cc21 [Compound 8, Zantrin Z2]
  lowest dose not showing behavioral effects or lethality: 300 mg/kg
